# T1: IL-1R (IL-1 Receptor) (UniProt P14778 18-569, limits assumed)
# T1 sequence (looked up): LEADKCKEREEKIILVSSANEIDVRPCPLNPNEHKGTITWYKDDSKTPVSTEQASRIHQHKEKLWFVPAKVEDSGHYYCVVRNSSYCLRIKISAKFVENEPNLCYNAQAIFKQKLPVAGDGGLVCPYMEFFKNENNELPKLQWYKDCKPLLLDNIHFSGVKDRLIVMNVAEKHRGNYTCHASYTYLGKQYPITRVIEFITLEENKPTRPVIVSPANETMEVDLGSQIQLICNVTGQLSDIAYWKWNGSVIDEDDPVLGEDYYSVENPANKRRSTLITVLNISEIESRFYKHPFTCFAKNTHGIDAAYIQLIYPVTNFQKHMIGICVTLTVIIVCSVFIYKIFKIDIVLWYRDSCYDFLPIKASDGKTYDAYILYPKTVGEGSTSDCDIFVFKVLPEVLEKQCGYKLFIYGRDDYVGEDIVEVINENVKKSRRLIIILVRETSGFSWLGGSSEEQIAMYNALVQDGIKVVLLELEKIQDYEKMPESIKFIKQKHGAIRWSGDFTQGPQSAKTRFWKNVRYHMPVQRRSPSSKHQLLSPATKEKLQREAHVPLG
# B1: CD8 VHH_5GGS_Fc_hole + Fc-knob_20GGS_IL1α delta 1-6_A58G (Fc fusion)
# chain 1: DVQLQESGGGLVQPGGSLRLSCAASGSIFSINVMGWYRQTPGKERELVAKITNFGITSYADSAQGRFTISRGNAKNTVYLQMNSLKPEDTAVYYCNLDTTGWGPPPYQYWGQGTQVTVSSGGSGGSGGSGGSGGSDKTHTCPPCPAPEAAGGPSVFLFPPKPKDTLMISRTPEVTCVVVDVSHEDPEVKFNWYVDGVEVHNAKTKPREEQYNSTYRVVSVLTVLHQDWLNGKEYKCQVSNKALPAPIEKTISKAKGQPREPQVCTLPPSRDELTKNQVSLSCAVKGFYPSDIAVEWESNGQPENNYKTTPPVLDSDGSFFLVSKLTVDKSRWQQGNVFSCSVMHEALHNHYTQKSLSLSPGK
# chain 2: [letters of human IgG1 Fc with changes not shown]GGSGGSGGSGGSGGSGGSGGSGGSGGSGGSGGSGGSGGSGGSGGSGGSGGSGGSGGSGGSLSNVKYNFMRIIKYEFILNDALNQSIIRANDQYLTAAALHNLDEAVKFDMGGYKSSKDDAKITVILRISKTQLYVTAQDEDQPVLLKEMPEIPKTITGSETNLLFFWETHGTKNYFTSVAHPNLFIATKQDYWVCLAGGPPSITDFQILENQA
# B2: CD8 VHH_5GGS_Fc_hole + Fc-knob_20GGS_IL1α delta 1-6_A58S (Fc fusion)
# chain 1: B1 chain 1
# chain 2: [letters of human IgG1 Fc with changes not shown]GGSGGSGGSGGSGGSGGSGGSGGSGGSGGSGGSGGSGGSGGSGGSGGSGGSGGSGGSGGSLSNVKYNFMRIIKYEFILNDALNQSIIRANDQYLTAAALHNLDEAVKFDMGSYKSSKDDAKITVILRISKTQLYVTAQDEDQPVLLKEMPEIPKTITGSETNLLFFWETHGTKNYFTSVAHPNLFIATKQDYWVCLAGGPPSITDFQILENQA
# B3: CD8 VHH_5GGS_Fc_hole + Fc-knob_20GGS_IL1α delta 1-6_A58T (Fc fusion)
# chain 1: B1 chain 1
# chain 2: [letters of human IgG1 Fc with changes not shown]GGSGGSGGSGGSGGSGGSGGSGGSGGSGGSGGSGGSGGSGGSGGSGGSGGSGGSGGSGGSLSNVKYNFMRIIKYEFILNDALNQSIIRANDQYLTAAALHNLDEAVKFDMGTYKSSKDDAKITVILRISKTQLYVTAQDEDQPVLLKEMPEIPKTITGSETNLLFFWETHGTKNYFTSVAHPNLFIATKQDYWVCLAGGPPSITDFQILENQA
# B4: CD8 VHH_5GGS_Fc_hole + Fc-knob_20GGS_IL1α delta 1-6_A58N (Fc fusion)
# chain 1: B1 chain 1
# chain 2: [letters of human IgG1 Fc with changes not shown]GGSGGSGGSGGSGGSGGSGGSGGSGGSGGSGGSGGSGGSGGSGGSGGSGGSGGSGGSGGSLSNVKYNFMRIIKYEFILNDALNQSIIRANDQYLTAAALHNLDEAVKFDMGNYKSSKDDAKITVILRISKTQLYVTAQDEDQPVLLKEMPEIPKTITGSETNLLFFWETHGTKNYFTSVAHPNLFIATKQDYWVCLAGGPPSITDFQILENQA
# B5: CD8 VHH_5GGS_Fc_hole + Fc-knob_20GGS_IL1α delta 1-6_A58H (Fc fusion)
# chain 1: B1 chain 1
# chain 2: [letters of human IgG1 Fc with changes not shown]GGSGGSGGSGGSGGSGGSGGSGGSGGSGGSGGSGGSGGSGGSGGSGGSGGSGGSGGSGGSLSNVKYNFMRIIKYEFILNDALNQSIIRANDQYLTAAALHNLDEAVKFDMGHYKSSKDDAKITVILRISKTQLYVTAQDEDQPVLLKEMPEIPKTITGSETNLLFFWETHGTKNYFTSVAHPNLFIATKQDYWVCLAGGPPSITDFQILENQA
# B6: CD8 VHH_5GGS_Fc_hole + Fc-knob_20GGS_IL1α delta 1-6_A58F (Fc fusion)
# chain 1: B1 chain 1
# chain 2: [letters of human IgG1 Fc with changes not shown]GGSGGSGGSGGSGGSGGSGGSGGSGGSGGSGGSGGSGGSGGSGGSGGSGGSGGSGGSGGSLSNVKYNFMRIIKYEFILNDALNQSIIRANDQYLTAAALHNLDEAVKFDMGFYKSSKDDAKITVILRISKTQLYVTAQDEDQPVLLKEMPEIPKTITGSETNLLFFWETHGTKNYFTSVAHPNLFIATKQDYWVCLAGGPPSITDFQILENQA
# B7: CD8 VHH_5GGS_Fc_hole + Fc-knob_20GGS_IL1α delta 1-6_K60A (Fc fusion)
# chain 1: B1 chain 1
# chain 2: [letters of human IgG1 Fc with changes not shown]GGSGGSGGSGGSGGSGGSGGSGGSGGSGGSGGSGGSGGSGGSGGSGGSGGSGGSGGSGGSLSNVKYNFMRIIKYEFILNDALNQSIIRANDQYLTAAALHNLDEAVKFDMGAYASSKDDAKITVILRISKTQLYVTAQDEDQPVLLKEMPEIPKTITGSETNLLFFWETHGTKNYFTSVAHPNLFIATKQDYWVCLAGGPPSITDFQILENQA
# B8: CD8 VHH_5GGS_Fc_hole + Fc-knob_20GGS_IL1α delta 1-6_K60G (Fc fusion)
# chain 1: B1 chain 1
# chain 2: [letters of human IgG1 Fc with changes not shown]GGSGGSGGSGGSGGSGGSGGSGGSGGSGGSGGSGGSGGSGGSGGSGGSGGSGGSGGSGGSLSNVKYNFMRIIKYEFILNDALNQSIIRANDQYLTAAALHNLDEAVKFDMGAYGSSKDDAKITVILRISKTQLYVTAQDEDQPVLLKEMPEIPKTITGSETNLLFFWETHGTKNYFTSVAHPNLFIATKQDYWVCLAGGPPSITDFQILENQA
# B9: CD8 VHH_5GGS_Fc_hole + Fc-knob_20GGS_IL1α delta 1-6_D64A (Fc fusion)
# chain 1: B1 chain 1
# chain 2: [letters of human IgG1 Fc with changes not shown]GGSGGSGGSGGSGGSGGSGGSGGSGGSGGSGGSGGSGGSGGSGGSGGSGGSGGSGGSGGSLSNVKYNFMRIIKYEFILNDALNQSIIRANDQYLTAAALHNLDEAVKFDMGAYKSSKADAKITVILRISKTQLYVTAQDEDQPVLLKEMPEIPKTITGSETNLLFFWETHGTKNYFTSVAHPNLFIATKQDYWVCLAGGPPSITDFQILENQA
# B10: CD8 VHH_5GGS_Fc_hole + Fc-knob_20GGS_IL1α delta 1-6_K67A (Fc fusion)
# chain 1: B1 chain 1
# chain 2: [letters of human IgG1 Fc with changes not shown]GGSGGSGGSGGSGGSGGSGGSGGSGGSGGSGGSGGSGGSGGSGGSGGSGGSGGSGGSGGSLSNVKYNFMRIIKYEFILNDALNQSIIRANDQYLTAAALHNLDEAVKFDMGAYKSSKDDAAITVILRISKTQLYVTAQDEDQPVLLKEMPEIPKTITGSETNLLFFWETHGTKNYFTSVAHPNLFIATKQDYWVCLAGGPPSITDFQILENQA
# B11: CD8 VHH_5GGS_Fc_hole + Fc-knob_20GGS_IL1α delta 1-6_I68A (Fc fusion)
# chain 1: B1 chain 1
# chain 2: [letters of human IgG1 Fc with changes not shown]GGSGGSGGSGGSGGSGGSGGSGGSGGSGGSGGSGGSGGSGGSGGSGGSGGSGGSGGSGGSLSNVKYNFMRIIKYEFILNDALNQSIIRANDQYLTAAALHNLDEAVKFDMGAYKSSKDDAKATVILRISKTQLYVTAQDEDQPVLLKEMPEIPKTITGSETNLLFFWETHGTKNYFTSVAHPNLFIATKQDYWVCLAGGPPSITDFQILENQA
# B12: CD8 VHH_5GGS_Fc_hole + Fc-knob_20GGS_IL1α delta 1-6_I68G (Fc fusion)
# chain 1: B1 chain 1
# chain 2: [letters of human IgG1 Fc with changes not shown]GGSGGSGGSGGSGGSGGSGGSGGSGGSGGSGGSGGSGGSGGSGGSGGSGGSGGSGGSGGSLSNVKYNFMRIIKYEFILNDALNQSIIRANDQYLTAAALHNLDEAVKFDMGAYKSSKDDAKGTVILRISKTQLYVTAQDEDQPVLLKEMPEIPKTITGSETNLLFFWETHGTKNYFTSVAHPNLFIATKQDYWVCLAGGPPSITDFQILENQA
# B13: CD8 VHH_5GGS_Fc_hole + Fc-knob_20GGS_IL1α delta 1-6_Q136A (Fc fusion)
# chain 1: B1 chain 1
# chain 2: [letters of human IgG1 Fc with changes not shown]GGSGGSGGSGGSGGSGGSGGSGGSGGSGGSGGSGGSGGSGGSGGSGGSGGSGGSGGSGGSLSNVKYNFMRIIKYEFILNDALNQSIIRANDQYLTAAALHNLDEAVKFDMGAYKSSKDDAKITVILRISKTQLYVTAQDEDQPVLLKEMPEIPKTITGSETNLLFFWETHGTKNYFTSVAHPNLFIATKADYWVCLAGGPPSITDFQILENQA
# Molecular target: T1, IL-1R (IL-1 Receptor)
# Experiment: cell-based or functional assay
Binder,"NF-KB signal, -CD8 cells, 1 ng/ml","NF-KB signal, -CD8 cells, 10 ng/ml","NF-KB signal, -CD8 cells, 100 ng/ml","NF-KB signal, -CD8 cells, 1000 ng/ml"
B1,0.02 rel. to 100 ng/ml IL1α,0.02 rel. to 100 ng/ml IL1α,0.1 rel. to 100 ng/ml IL1α,0.83 rel. to 100 ng/ml IL1α
B2,0.01 rel. to 100 ng/ml IL1α,0.01 rel. to 100 ng/ml IL1α,0.09 rel. to 100 ng/ml IL1α,0.78 rel. to 100 ng/ml IL1α
B3,0.02 rel. to 100 ng/ml IL1α,0.02 rel. to 100 ng/ml IL1α,0.05 rel. to 100 ng/ml IL1α,0.64 rel. to 100 ng/ml IL1α
B4,0.01 rel. to 100 ng/ml IL1α,0.01 rel. to 100 ng/ml IL1α,0.02 rel. to 100 ng/ml IL1α,0.17 rel. to 100 ng/ml IL1α
B5,0.01 rel. to 100 ng/ml IL1α,0.02 rel. to 100 ng/ml IL1α,0.03 rel. to 100 ng/ml IL1α,0.28 rel. to 100 ng/ml IL1α
B6,0.01 rel. to 100 ng/ml IL1α,0.02 rel. to 100 ng/ml IL1α,0.11 rel. to 100 ng/ml IL1α,0.69 rel. to 100 ng/ml IL1α
B7,0.03 rel. to 100 ng/ml IL1α,0.02 rel. to 100 ng/ml IL1α,0.05 rel. to 100 ng/ml IL1α,0.45 rel. to 100 ng/ml IL1α
B8,0.02 rel. to 100 ng/ml IL1α,0.02 rel. to 100 ng/ml IL1α,0.13 rel. to 100 ng/ml IL1α,0.79 rel. to 100 ng/ml IL1α
B9,0.02 rel. to 100 ng/ml IL1α,0.02 rel. to 100 ng/ml IL1α,0.09 rel. to 100 ng/ml IL1α,0.71 rel. to 100 ng/ml IL1α
B10,0.01 rel. to 100 ng/ml IL1α,0.01 rel. to 100 ng/ml IL1α,0.12 rel. to 100 ng/ml IL1α,0.97 rel. to 100 ng/ml IL1α
B11,0.01 rel. to 100 ng/ml IL1α,0.03 rel. to 100 ng/ml IL1α,0.23 rel. to 100 ng/ml IL1α,0.91 rel. to 100 ng/ml IL1α
B12,0.01 rel. to 100 ng/ml IL1α,0.01 rel. to 100 ng/ml IL1α,0.01 rel. to 100 ng/ml IL1α,0.18 rel. to 100 ng/ml IL1α
B13,0.01 rel. to 100 ng/ml IL1α,0.02 rel. to 100 ng/ml IL1α,0.11 rel. to 100 ng/ml IL1α,0.85 rel. to 100 ng/ml IL1α

# Source: patent publication US20240358826A1 (ORIONIS BIOSCIENCES, published 2024)
